Data as given in the supplement of paper PMC5655136.
These are enrichments in a pooled selection; single values are uncertain.

System: NB7
Test: fold depletion of shRNA, plasmid library share / infected cells without Dox share (9 days) (ratio); higher = more depleted after infection (more toxic, leaky expression from a Tet-inducible vector; NB7 is a neuroblastoma line without caspase-8)
Settings: shRNA pool: CD95L ORF + CD95L 3'UTR + Venus libraries
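Note: shRNA barcodes quantified by deep sequencing of PCR amplicons from cellular DNA, counts expressed as percent of each subpool, ratio averaged over two biological duplicates.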

Sequence	fold depletion of shRNA
ACTACCTGAGCTACCAGTCCG	1.82
GTCTATATCACCGCCGACAAG	2.44
CATCTTTGGAGAAGCAAATAG	0.627
AGTATAAGAAGGGTGGCCTTG	0.293
AAGCACTTTGGGATTCTTTCC	1.27
GTCCACCCCCTGAAAAAAAGG	14.4
GCCTCCACTACCGCTGCCACC	75.3
CGAGGGCGATGCCACCTACGG	0.94
TAACAGGCAAGTCCAACTCAA	0.36
ACTCTCGGCATGGACGAGCTG	1.09
TTCACCGGGGTGGTGCCCATC	0.971
AAGAAGACATGAACCAAGTGG	1.51
TGCCCGAAGGCTACGTCCAGG	1.19
TGATCTGCACCACCGGCAAGC	1.52
AGGCCACCCCAGTCCACCCCC	35.2
ACAAGGTCTACATGAGGAACT	0.347
ATAGTGCTTAAAAATCATTGA	1.18
CGTCCAGGAGCGCACCATCTT	1.19
TGAATGCTTCCTGACAATCAA	1.41
CCCTTCAATTACCCATATCCC	1.32
CGTGACCACCCTGGGCTACGG	1.46
AAACATGTAATAAAAAGTATA	0.626
CTACAAGACCCGCGCCGAGGT	2.03
ACTAATGATGTTTTCCTATAA	0.491
GAAGAGGGAGAAGCATGAAAA	1.26
CAGTGCTGATCATTTATATGT	0.58
GGTGTGTGTGTGTGTGTGTGT	0.756

Sequence	fold depletion of shRNA
GTCCATGCCTCTGGAATGGGA	8.83
GCCGGGATCACTCTCGGCATG	0.312
CAATTTTGAGGAATCTCAGAC	1.81
CAGCTACTAATGATGTTTTCC	0.625
GTATACTTCCGGGGTCAATCT	2.68
CCTGCTTTCTGGAGTGAAGTA	1.43
GTGTATTTCCAGTGCAATTGT	2.98
TGAAACTAACAGATAAGCAAG	1.98
AACGGCATCAAGGCCAACTTC	2.02
CAGCTCGCCGACCACTACCAG	0.652
CTCTAAGTATCCCCAGGATCT	3.43
CGCCACCGCCACCACTACCAC	1.12
GGGACTGTCTTTCAGATACAT	2.71
AGGGCGAGGGCGATGCCACCT	1.26
ATGTTTTTCATGGTTCTGGTT	1.15
GGGTGTGTGTGTGTGTGTGTG	1.93
GCCGACCACTACCAGCAGAAC	0.803
TCGACTTCAAGGAGGACGGCA	1.97
GGACGGCAACATCCTGGGGCA	0.922
TTCAAGGACGACGGCAACTAC	1.81
AAGCAAATAGGCCACCCCAGT	1.04
GCTTGCATAATAAGCTAAAGA	1.05
TATTCAGTGAGGGTCTTCTTA	3.57
CCGCCCTGAGCAAAGACCCCA	1.02
ATTTATGTAGATGTGCATTTT	0.985
TTCAAAATGTCTGTAGCTCCT	6.95

Same assay, conditions: shRNA pool: CD95 ORF + CD95 3'UTR + Venus libraries

Sequence	fold depletion of shRNA
AGAAGCGTATGACACATTGAT	2.06
CCCATGTTTGCAATCAAAGAT	2.81
ACTACCTGAGCTACCAGTCCG	1.67
TATCTGATGTTGACTTGAGTA	2.07
GCCCCTTGTGTTTGGAATTAT	1.31
ATCCACAGGCTAACCCCACTC	2.31
GTCTATATCACCGCCGACAAG	2.07
AAATTACCTCTGATAATTCTA	1.07
CGAGGGCGATGCCACCTACGG	1.49
CCAAGGATGTTTAAAATCTAG	0.77
ACAATATTTCAATTGTGAATT	0.564
TCCCATGTAAAACCTGCTACA	1.25
AGTGAAAAACAACAAATTCAG	1.09
GTAGTATGAATGTAATCAGTG	1
AGATACTAACTGCTCTCAGAG	1.94
TTCAGTTCTGAGTATATGCAA	1.87
ACTCTCGGCATGGACGAGCTG	0.641
TAAGTACCCAAATAGGAGTGT	3.04
TTCACCGGGGTGGTGCCCATC	0.679
TGTAGATTGTGTGATGAAGGA	2.47
TGCCCGAAGGCTACGTCCAGG	0.735
TGGCTTAGAAGTGGAAATAAA	0.727

Sequence	fold depletion of shRNA
TTACTAGTGACTCAGAAAATT	0.874
ATTATGCTCTGGCATCTAACA	2.57
CAGAAGATGTAGATTGTGTGA	1.11
AACCTGCTACAAATGGCAGCT	3.22
ATGGTAAAATCATCATCTGGA	1.2
TGATCTGCACCACCGGCAAGC	1.76
GACCTTTTGCTGAAATATCAG	2.48
TCATCCTCAAGGACATTACTA	2.02
ACCAAACTTTTTTTGTAACTC	1.05
CGTCCAGGAGCGCACCATCTT	1.08
GTAAATGTAAACTGTGAAGAT	1.47
GCAGGAGAGTATTACTAGAGC	1.48
CGTGACCACCCTGGGCTACGG	2.04
CTACAAGACCCGCGCCGAGGT	0.621
GTTGCTAGATTATCGTCCAAA	1.33
ACTCACCAGCAACACCAAGTG	1.29
CTTGGTGCTCATCTTAATGGC	1.78
GTTACTACAGTTGAGACTCAG	1.51
GCCGGGATCACTCTCGGCATG	2.71
CCCATTTTTCTTCCAAATGCA	0.785
TACTTCTTTCTCAGGCATCAA	1.55
ACTATCATCCTCAAGGACATT	1.81

Sequence	fold depletion of shRNA
CAGTTACTGAACAGGCAGGCC	1.48
CACCTAAAGAACTTCCATTTA	1.24
TTGTAACTCTACTGTATGTGA	0.983
CTGTTGCTAGATTATCGTCCA	1.22
ATGGAAAGAAAGAAGCGTATG	1.33
TGGGGATGAACCAGACTGCGT	1.91
ACACTGTGACCCTTGCACCAA	1.18
AACGGCATCAAGGCCAACTTC	1.02
TTGCTGGAGTCATGACACTAA	0.87
CAGCTCGCCGACCACTACCAG	0.804
TTTGTATTAAATGTGAATTTT	0.696
AACACCAAGTGCAAAGAGGAA	1.93
GACCCTTGCACCAAATGTGAA	1.61
AGGGCGAGGGCGATGCCACCT	0.814
GAAAATTCAAACTTCAGAAAT	0.65
ACAGACAAAGCCCATTTTTCT	2.18
ATTAGTGTTTGAAAAGATTCT	1.53
TTTTGTAACTCTACTGTATGT	0.601
TTAAATCCTGAAACAGTGGCA	1.02
GCCGACCACTACCAGCAGAAC	0.808
TCGACTTCAAGGAGGACGGCA	1.04
GGACGGCAACATCCTGGGGCA	1.04

Sequence	fold depletion of shRNA
TTCAAGGACGACGGCAACTAC	1.67
ACCAAGGTTCTCATGAATCTC	1.23
TGTAAATGTAAACTGTGAAGA	1.12
TTCTTCTTTTGCCAATTCCAC	2.69
GTGCTCATCTTAATGGCCTAA	8.23
CTCCAGGTGAAAGGAAAGCTA	1.46
CCGCCCTGAGCAAAGACCCCA	1.14
ACCAAATGTGAACATGGAATC	1.31
GACTGTTACTACAGTTGAGAC	1.08
ATCATCCTCAAGGACATTACT	1.4
TAGTTGGGAAAACAAACTTCA	4.77
ATTTTATCATTTATTAGCGCT	1.14
TTGCCAATTCCACTAATTGTT	1.46
ACTGCTCTCAGAGAAAGTAGC	5.87
AAATCTAGTTGGGAAAACAAA	1.99
TCTCCTTACTACTATCCTACG	0.621
AAATGTTCAATAATGTCCCAT	1.09
GGTAAAATCATCATCTGGATT	2.92
CTTAATAGTCCACCAAAAGGC	8.62
GGAAGACTGTTACTACAGTTG	3.89
